Patent US20240287169A1 (AULOS BIOSCIENCE, published 2024)

Molecular target: T1, human IL-2 dimer receptor (CD122/CD132) on HEK-293 reporter cells (human, UniProt P14784 27-551; P31785 23-369)
T1 sequence (looked up) 1: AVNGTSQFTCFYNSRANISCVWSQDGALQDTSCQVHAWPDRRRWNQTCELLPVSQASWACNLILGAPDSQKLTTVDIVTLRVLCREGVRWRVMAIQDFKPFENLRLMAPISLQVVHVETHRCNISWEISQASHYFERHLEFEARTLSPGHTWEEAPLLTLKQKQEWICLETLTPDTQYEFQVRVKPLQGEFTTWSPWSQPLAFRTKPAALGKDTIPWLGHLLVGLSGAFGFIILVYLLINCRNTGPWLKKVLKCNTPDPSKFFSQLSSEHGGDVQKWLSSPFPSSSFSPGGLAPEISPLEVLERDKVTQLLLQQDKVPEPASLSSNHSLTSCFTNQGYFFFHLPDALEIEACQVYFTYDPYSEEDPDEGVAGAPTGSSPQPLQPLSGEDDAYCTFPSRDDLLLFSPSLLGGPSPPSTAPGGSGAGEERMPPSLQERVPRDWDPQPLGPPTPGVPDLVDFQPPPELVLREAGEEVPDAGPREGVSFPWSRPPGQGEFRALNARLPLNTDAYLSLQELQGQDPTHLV
T1 sequence (looked up) 2: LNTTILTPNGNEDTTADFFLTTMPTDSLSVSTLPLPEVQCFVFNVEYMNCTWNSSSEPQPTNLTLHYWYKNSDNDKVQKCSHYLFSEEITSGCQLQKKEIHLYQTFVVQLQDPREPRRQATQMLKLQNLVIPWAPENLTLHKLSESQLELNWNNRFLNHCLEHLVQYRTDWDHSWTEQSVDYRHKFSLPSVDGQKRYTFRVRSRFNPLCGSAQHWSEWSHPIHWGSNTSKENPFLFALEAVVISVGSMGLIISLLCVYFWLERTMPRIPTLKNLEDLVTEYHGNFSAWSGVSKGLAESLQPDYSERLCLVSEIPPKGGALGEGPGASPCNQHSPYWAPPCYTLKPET
Assay: cell-based or functional assay

B1: Non-alpha-IL-2 (naIL-2, hIL-2/hCD25 conjugate) (other, human)
chain: ELCDDDPPEIPHATFKAMAYKEGTMLNCECKRGFRRIKSGSLYMLCTGNSSHSSWDNQCQCTSSATRNTTKQVTPQPEEQKERKTTEMQSPMQPVDQASLPGHCREPPPWENEATERIYHFVVGQMVYYQCVQGYRALHRGPAESVCKMTHGKTRWTQPQLICTGEMETSQFPGEEKPQASPEGRPESETSCLVTTTDFQIQTEMAATMETSIFTTEYQGGGGSTRGGGGSTGGGGSGGGGSS[skipping about 150 residues]HHHHHHHH
- EC50 (SEAP reporter, Abs. 620nM): 97 pM
